The supplement of paper PMC4604168 (melanoma cell lines)
The list shows a part of the results. Most values come without repeats; read them as rough.

Assays:
Experiment in all cases: cell count relative to DMSO control; melanoma cells; higher = more viable cells
Conditions in all cases: library dose: standard library concentration; 72 h
[1] = system: SkMel28
[2] = system: SkMel2
[3] = system: SkMel30
[4] = system: SkMel5
[5] = system: UACC257
[6] = system: UACC62
[7] = system: WM115
[8] = system: WM1716
[9] = system: WM1745
[10] = system: WM3526
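Note: cells treated in 1,536-well plates, then fixed and DAPI-stained, with nuclei counted from automated high-throughput microscope images.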

Compound | cell count [1] | cell count [2] | cell count [3] | cell count [4] | cell count [5] | cell count [6] | cell count [7] | cell count [8] | cell count [9] | cell count [10]
C=CCn1c(=O)c2cnc(Nc3ccc(N4CCN(C)CC4)cc3)nc2n1-c1cccc(C(C)(C)O)n1 + Cc1ccc(NC(=O)c2cccc(N(C)C)c2)cc1NC(=O)c1ccc(O)cc1 [ZM336372] (first compound 0.1 µM, partner dose 10 µM) | 54.1% | 75.3% | 60.7% | 46.9% | 80.9% | 68.6% | 58.2% | 86.8% | 38% | 68.8%
CO[C@@H]1[C@H](N(C)C(=O)c2ccccc2)C[C@H]2O[C@]1(C)n1c3ccccc3c3c4c(c5c6ccccc6n2c5c31)C(=O)NC4 [Midostaurin] + Cc1cc([N+](=O)[O-])ccc1NS(=O)(=O)c1cc(Cl)ccc1Cl [FH535] (first compound 0.4 µM, partner dose 5 µM) | 38.5% | 44.6% | 58.5% | 56.4% | 54.7% | 80.6% | 34.7% | 34.4% | 42.7% | 63%
C=CCn1c(=O)c2cnc(Nc3ccc(N4CCN(C)CC4)cc3)nc2n1-c1cccc(C(C)(C)O)n1 + COc1ccc2c(c1)CCC1C2CCC2(C)C(NCCCCCCN3C(=O)C=CC3=O)CCC12 [U73122] (first compound 0.1 µM, partner dose 2 µM) | 32.7% | 72.2% | 83.4% | 62.2% | 81.4% | 56% | 57% | 72.1% | 40.7% | 74%
C[C@]1(c2nc3c(C(N)=O)cccc3[nH]2)CCCN1 [Veliparib] + O=C(Nc1ccccc1)c1cc([N+](=O)[O-])ccc1Cl [GW9662] (first compound 7 µM, partner dose 10 µM) | 63.3% | 91.8% | 80.5% | 62.8% | 80.2% | 78.8% | 50.7% | 93.5% | 71.5% | 99.2%
C[C@]1(c2nc3c(C(N)=O)cccc3[nH]2)CCCN1 [Veliparib] + COc1cc(N2CCC(N3CCN(C)CC3)CC2)ccc1Nc1ncc(Cl)c(Nc2ccccc2S(=O)(=O)C(C)C)n1 [NVP-TAE684] (first compound 7 µM, partner dose 0.4 µM) | 75.6% | 76.5% | 102% | 54.3% | 92.2% | 73.7% | 50% | 85% | 50.7% | 79.7%
CN(C)S(=O)(=O)c1ccc2c(c1)/C(=C/c1cc3c([nH]1)CCCC3)C(=O)N2 + NCC(=O)Nc1ccc(-n2nc(C(F)(F)F)cc2-c2ccc3c(ccc4ccccc43)c2)cc1 [OSU03012] (first compound 2 µM, partner dose 5 µM) | 15.5% | 37.9% | 30.8% | 52.6% | 71.9% | 64.3% | 59.9% | 58.7% | 47.4% | 47.1%
Cc1nc(Nc2ncc(C(=O)Nc3c(C)cccc3Cl)s2)cc(N2CCN(CCO)CC2)n1 [dasatanib] + O=C(CCCCCCC(=O)Nc1ccccc1)NO [vorinostat] (first compound 0.02 µM, partner dose 0.4 µM) | 52% | 67.9% | 83% | 46.9% | 76.8% | 48.4% | 45.2% | 47.2% | 29.1% | 62.1%
C=CCn1c(=O)c2cnc(Nc3ccc(N4CCN(C)CC4)cc3)nc2n1-c1cccc(C(C)(C)O)n1 + O=S(=O)(c1ccccc1)N(CC(F)(F)F)c1ccc(C(O)(C(F)(F)F)C(F)(F)F)cc1 [T0901317] (first compound 0.1 µM, partner dose 7 µM) | 40.1% | 67.3% | 71.3% | 50.9% | 72.9% | 52.4% | 76.7% | 76.3% | 39.5% | 77%
Cc1nc(Nc2ncc(C(=O)Nc3c(C)cccc3Cl)s2)cc(N2CCN(CCO)CC2)n1 [dasatanib] + COCC[n+]1c2c(n(Cc3cnccn3)c1C)C(=O)c1ccccc1C2=O [YM155] (first compound 0.02 µM, partner dose 0.002 µM) | 29.5% | 26.4% | 73.5% | 38.3% | 21.9% | 48.7% | 74.2% | 49.8% | 41.8% | 39.5%
OCCn1cc(-c2cnc3nnn(Cc4ccc5ncccc5c4)c3n2)cn1 + O=C1NC(=O)/C(=C/c2ccc(-c3ccc(F)cc3O)o2)S1 [AS252424] (first compound 5 µM, partner dose 5 µM) | 119% | 94% | 105% | 80.8% | 90.4% | 81.8% | 87.6% | 84.6% | 79.9% | 77%
C[C@]1(c2nc3c(C(N)=O)cccc3[nH]2)CCCN1 [Veliparib] + O=C(Nc1cccc(Cl)c1)Nc1ncc(CCNc2ncnc3ccsc23)s1 [SNS314] (first compound 7 µM, partner dose 0.004 µM) | 64.3% | 64.5% | 79.2% | 73.2% | 83.9% | 76% | 35.2% | 59.7% | 57.1% | 78.3%
C=CCn1c(=O)c2cnc(Nc3ccc(N4CCN(C)CC4)cc3)nc2n1-c1cccc(C(C)(C)O)n1 + c1cc(-c2cnn3cc(-c4ccc(OCCN5CCCCC5)cc4)cnc23)ccn1 [Dorsomorphin] (first compound 0.1 µM, partner dose 2 µM) | 53.8% | 84.9% | 73.8% | 45.7% | 69.8% | 69.3% | 63.9% | 71.7% | 51% | 59%
CO[C@@H]1[C@H](N(C)C(=O)c2ccccc2)C[C@H]2O[C@]1(C)n1c3ccccc3c3c4c(c5c6ccccc6n2c5c31)C(=O)NC4 [Midostaurin] + OCCn1cc(-c2cnc3nnn(Cc4ccc5ncccc5c4)c3n2)cn1 [PF04217903] (first compound 0.4 µM, partner dose 5 µM) | 76.7% | 75.2% | 108% | 64.1% | 77.4% | 75.6% | 65.6% | 54.3% | 70.9% | 93.8%
C=CCn1c(=O)c2cnc(Nc3ccc(N4CCN(C)CC4)cc3)nc2n1-c1cccc(C(C)(C)O)n1 + COC(=O)c1sccc1S(=O)(=O)Nc1ccc(Nc2ccccc2)cc1OC [GSK0660] (first compound 0.1 µM, partner dose 5 µM) | 39.2% | 77.7% | 83.4% | 74.7% | 83.3% | 95.7% | 75.3% | 77.4% | 58.9% | 73.7%
NCC(=O)Nc1ccc(-n2nc(C(F)(F)F)cc2-c2ccc3c(ccc4ccccc43)c2)cc1 + O=c1cc(-c2cccc3c2Sc2ccccc2S3)oc(N2CCOCC2)c1 [KU55933] (first compound 5 µM, partner dose 5 µM) | 20.1% | 35.4% | 55.6% | 44.5% | 75.5% | 74.8% | 87.4% | 85.9% | 57% | 46%
C[C@]1(c2nc3c(C(N)=O)cccc3[nH]2)CCCN1 [Veliparib] + C=CCn1c(=O)c2cnc(Nc3ccc(N4CCN(C)CC4)cc3)nc2n1-c1cccc(C(C)(C)O)n1 [MK1775] (first compound 7 µM, partner dose 0.1 µM) | 43.5% | 78.5% | 87.6% | 48.6% | 78.8% | 70.6% | 62.8% | 81.1% | 37.4% | 82.2%
CN(C)S(=O)(=O)c1ccc2c(c1)/C(=C/c1cc3c([nH]1)CCCC3)C(=O)N2 + Cn1cc(/C=C2\C(=O)Nc3cccnc32)c2ccccc21 [GW441756] (first compound 2 µM, partner dose 2 µM) | 61.2% | 74.7% | 67.6% | 71.2% | 71.8% | 57.9% | 57.4% | 68.1% | 52.1% | 84.1%
NC(=O)Nc1cc(-c2cccc(F)c2)sc1C(=O)N[C@H]1CCCNC1 + O=S(=O)(c1ccccc1)N(CC(F)(F)F)c1ccc(C(O)(C(F)(F)F)C(F)(F)F)cc1 [T0901317] (first compound 0.1 µM, partner dose 7 µM) | 61% | 87.6% | 76.6% | 81.3% | 106% | 73.5% | 82.8% | 81.8% | 60.5% | 56%
C[C@]1(c2nc3c(C(N)=O)cccc3[nH]2)CCCN1 [Veliparib] + C[C@@H]1CCN(C(=O)CC#N)C[C@@H]1N(C)c1ncnc2[nH]ccc12 [CP690550] (first compound 7 µM, partner dose 5 µM) | 60.5% | 80.8% | 98% | 80.6% | 94.4% | 77.2% | 72.2% | 84.7% | 76.4% | 101%
CN(C)S(=O)(=O)c1ccc2c(c1)/C(=C/c1cc3c([nH]1)CCCC3)C(=O)N2 + CCc1ccc(CCOc2ccc(CC3SC(=O)NC3=O)cc2)nc1 [pioglitazone] (first compound 2 µM, partner dose 10 µM) | 49.7% | 97.9% | 91.8% | 86.5% | 88.7% | 91% | 72% | 90.2% | 90.9% | 97.3%
OCCn1cc(-c2cnc3nnn(Cc4ccc5ncccc5c4)c3n2)cn1 + Cc1cc([N+](=O)[O-])ccc1NS(=O)(=O)c1cc(Cl)ccc1Cl [FH535] (first compound 5 µM, partner dose 5 µM) | 67.3% | 83.5% | 91.6% | 69.1% | 79.3% | 83% | 77.9% | 77.3% | 76.6% | 78.4%
Cc1nc(Nc2ncc(C(=O)Nc3c(C)cccc3Cl)s2)cc(N2CCN(CCO)CC2)n1 [dasatanib] + O=C(O)c1ccc(-c2c[nH]c3ncc(-c4ccccc4)cc23)cc1C1CCCC1 [GSK650394] (first compound 0.02 µM, partner dose 0.8 µM) | 90.1% | 79% | 93.4% | 64.9% | 70.1% | 81.7% | 71.9% | 69.7% | 43.4% | 89.7%
